Source: the supplement of paper PMC10320760
This is a noisy data set.

B1: Ydj1; a variant is named by its letters at X, in order (parent)
chain: MVKETKFYDILGVPVTATDVEIKKAYRKCALKYHPDKNPSEEAAEKFKEASAAYEILSDPEKRDIYDQFGEDGLSGAGGAGGFPGGGFGFGDDIFSQFFGAGGAQRPRGPQRGKDIKHEISASLEELYKGRTAKLALNKQILCKECEGRGGKKGAVKKCTSCNGQGIKFVTRQMGPMIQRFQTECDVCHGTGDIIDPKDRCKSCNGKKVENERKILEVHVEPGMKDGQRIVFKGEADQAPDVIPGDVVFIVSERPHKSFKRDGDDLVYEAEIDLLTAIAGGEFALEHVSGDWLKVGIVPGEVIAPGMRKVIEGKGMPIPKYGGYGNLIIKFTIKFPENHFTSEENLKKLEEILPPRIVPAIPKKATVDECVLADFDPAKYNRTRASRGGANYDSDEEEQGGEGVQCXXX

Variants of: B1
Assay: enrichment factor, frequency at 37 °C / frequency at 25 °C (thermotolerance selection) (ratio); higher = more growth at 37 °C, higher likelihood of farnesylation
Conditions: with Saccharomyces cerevisiae ydj1Δ (yWS304); selective temperature 37 °C; reference temperature 25 °C
Procedure: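 Pooled library of all 8,000 Ydj1-CXXX C-terminal motif variants (native CASQ replaced by C + three variable residues, one codon per amino acid) expressed from a CEN plasmid in S. cerevisiae ydj1Δ (yWS304). The library was grown in SC-Ura liquid to A600 ~2 (~8 generations) at permissive 25 °C or selective 37 °C. Reads from 8 and 7 replicates were pooled and variants counted by NGS. Enrichment factor = frequency at 37 °C / frequency at 25 °C, with a +1 correction; it reports Ydj1-dependent thermotolerance, used as a read-out of farnesylation by yeast FTase.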

Variant | enrichment factor
GAF | 0.97
GAS | 1.62
GAA | 1.7
GAL | 1.25
GAN | 0.979
GAR | 0.112
GAE | 0.211
GAT | 1.57
GAP | 0.0834
GAM | 1.5
GAG | 0.44
GAK | 0.151
GAC | 1.14
GAD | 0.161
GAQ | 1.31
GAI | 1.26
GAH | 0.458
KAC | 0.586
KAA | 1.43
KAD | 1.54
KAN | 1.35
KAL | 0.874
KAQ | 1.62
KAM | 2.03

Variant | enrichment factor
KAS | 1.64
KAK | 0.166
KAP | 0.17
KAI | 1.23
KAR | 0.186
KAE | 0.502
KAT | 1.26
KAF | 2.36
KAG | 1.39
KAH | 1.62
FAT | 1.9
FAP | 1.14
FAA | 1.98
FAN | 1.71
FAH | 1.62
FAR | 0.19
FAS | 1.83
FAF | 2.03
FAM | 3.19
FAL | 2.56
FAD | 0.495
FAK | 0.103
FAQ | 2.12
FAG | 1.61

Variant | enrichment factor
FAI | 2.63
FAC | 1.28
FAE | 0.395
DAH | 0.323
DAQ | 1.58
DAF | 1.44
DAG | 0.158
DAP | 0.193
DAR | 0.219
DAL | 0.405
DAA | 0.512
DAN | 0.255
DAS | 1.53
DAM | 1.83
DAI | 0.608
DAD | 0.188
DAC | 1.25
DAK | 0.191
DAE | 0.137
LAQ | 1.47
LAF | 2.38
LAI | 2.59
LAR | 0.13
LAM | 1.73

Variant | enrichment factor
LAK | 0.261
LAD | 1.17
LAT | 1.91
LAA | 1.59
LAL | 1.42
LAE | 0.908
LAP | 0.18
LAG | 1.29
LAN | 1.51
LAC | 0.635
LAH | 1.47
LAS | 2.12
VAR | 0.141
VAI | 2.19
VAS | 1.01
VAM | 0.977
VAN | 2.84
VAE | 1.51
VAG | 1.22
VAK | 0.518
VAQ | 2.33
VAF | 2.51
VAP | 0.121
VAL | 1.13

Variant | enrichment factor
VAD | 1.49
VAC | 0.786
VAH | 1.89
VAA | 1.44
QAG | 1.42
QAE | 0.331
QAM | 1.98
QAA | 1.98
QAR | 0.12
QAH | 2.03
QAC | 1.99
QAL | 1.74
QAS | 1.78
QAT | 1.65
QAN | 1.76
QAQ | 1.86
QAF | 2.67
QAI | 2.69
QAK | 0.192
QAP | 0.2
QAD | 0.414
PAF | 0.878
PAL | 1.59
PAK | 0.263

Variant | enrichment factor
PAC | 1.26
PAR | 0.154
PAA | 1.55
PAH | 1.42
PAD | 0.459
PAG | 1.59
PAQ | 1.16
PAS | 1.46
PAN | 1.29
PAP | 0.215
PAE | 0.41
PAM | 1.03
PAT | 1.64
PAI | 1.82
TAK | 0.103
TAL | 1.39
TAS | 1.86
TAI | 2.38
TAR | 0.154
TAM | 1.17
TAC | 1.39
TAE | 0.725
TAN | 2.05
TAD | 1.2

Variant | enrichment factor
TAG | 1.52
TAQ | 2.06
TAP | 0.166
TAH | 1.61
TAA | 1.7
TAF | 2.32
MAK | 0.131
MAE | 0.398
MAQ | 1.53
MAH | 1.8
MAN | 1.97
MAF | 3.09
MAC | 0.791
MAM | 1.61
MAT | 1.46
MAR | 0.188
MAA | 1.35
MAS | 1.85
MAL | 1.82
MAP | 0.102
MAD | 0.393
MAG | 1.33
MAI | 2.37
RAT | 1.36

Variant | enrichment factor
RAG | 0.937
RAL | 1.15
RAS | 1.46
RAQ | 1.25
RAH | 1.21
RAM | 1.36
RAF | 0.993
RAR | 0.185
RAN | 1.37
RAK | 0.101
RAI | 1.2
RAD | 1.32
RAE | 1.07
RAA | 1.29
RAP | 0.0673
RAC | 0.512
HAP | 0.501
HAQ | 2.1
HAS | 1.87
HAI | 1.78
HAK | 0.238
HAD | 0.613
HAG | 1.65
HAA | 1.77

Variant | enrichment factor
HAF | 1.8
HAM | 2.22
HAE | 0.384
HAH | 2.05
HAT | 2.4
HAL | 0.927
HAR | 0.169
HAC | 2.7
HAN | 1.76
EAC | 2.29
EAA | 1.38
EAL | 1.51
EAI | 1.56
EAP | 0.1
EAM | 1.33
EAD | 0.206
EAH | 1.11
EAE | 0.174
EAF | 1.45
EAQ | 1.7
EAN | 1.25
EAK | 0.166
EAS | 1.84
EAG | 0.879

Variant | enrichment factor
EAR | 0.13
EAT | 1.61
NAG | 1.46
NAN | 1.37
NAQ | 1.46
NAL | 1.09
NAA | 1.7
NAC | 1.17
NAS | 1.98
NAT | 1.79
NAF | 1.24
NAD | 0.344
NAI | 1.78
NAR | 0.121
NAM | 1.3
NAP | 0.198
NAK | 0.157
NAE | 0.207
NAH | 1.75
CAF | 0.979
CAA | 2.56
CAH | 1.35
CAP | 0.407
CAN | 1.47

Variant | enrichment factor
CAM | 0.683
CAC | 1.09
CAT | 1.11
CAK | 0.238
CAQ | 1.98
CAE | 1.37
CAL | 1.35
CAI | 0.667
CAS | 0.946
CAG | 1.17
CAR | 0.137
CAD | 1.28
IAK | 0.354
IAI | 3.86
IAS | 1.76
IAF | 2.09
IAA | 1.63
IAP | 0.174
IAG | 1.59
IAQ | 1.42
IAT | 2.61
IAE | 1.12
IAH | 1.68
IAL | 1.59

Variant | enrichment factor
IAN | 1.42
IAM | 2.42
IAR | 0.211
IAC | 1.75
IAD | 1.03
AAT | 1.36
AAQ | 1.53
AAG | 1.56
AAA | 1.72
AAR | 0.117
AAF | 2.81
AAM | 1.75
AAI | 1.12
AAL | 1.77
AAE | 1.26
AAH | 1.81
AAP | 0.0839
AAS | 1.43
AAN | 1.76
AAD | 0.972
AAK | 0.315
AAC | 0.906
WAG | 1.03
WAI | 0.948

Variant | enrichment factor
WAF | 1.45
WAE | 2.03
WAL | 1.57
WAA | 1.51
WAC | 0.756
WAS | 2.09
WAH | 1.96
WAK | 0.126
WAP | 1.06
WAM | 1.9
WAN | 1.54
WAQ | 1.81
WAD | 1.46
WAR | 0.341
YAI | 2.73
YAH | 1.72
YAF | 1.35
YAS | 3.76
YAA | 4.5
YAK | 0.097
YAR | 0.109
YAL | 2.14
YAP | 0.593
YAC | 4.96

Variant | enrichment factor
YAE | 0.197
YAN | 2.08
YAD | 0.372
YAM | 1.8
YAQ | 4.63
YAG | 1.75
SAN | 1.83
SAM | 1.63
SAS | 1.88
SAP | 0.172
SAH | 2.2
SAA | 1.12
SAQ | 1.4
SAL | 1.71
SAC | 0.676
SAE | 0.255
SAF | 1.5
SAR | 0.095
SAK | 0.186
SAG | 1.77
SAI | 1.74
SAD | 0.538
